Hit rate of the full screen: of about 310,000 compounds, about 18,000 (5.8%) were called active. The inconclusive results got no clear call from the source; some entries with a clear call stand among them for comparison. Calls follow the shape of the dose curve; as a rule, active = well fitted inhibition curve with a large enough effect; inconclusive = small, poorly fitted or top-dose-only effect, or another doubt; inactive = no such curve, though single readings can be large or run the other way. No potency is given beside an inconclusive call; the fits are too rough.
experiment: Primary qHTS for delayed death inhibitors of the malarial parasite plastid, 48 hour incubation; conditions: P. falciparum luciferase growth in erythrocytes; series mostly up to 28.7 µM; activity change, negative = inhibition: at the top concentration
Outline: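 Growth was read as firefly luciferase luminescence after a 48 h, 37 C, 5% CO2 exposure of compounds to reporter-bearing P. falciparum cultures (0.1% parasitemia, 2% hematocrit final) in Albumax-supplemented RPMI 1640.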
% is scaled to controls: 0 for no effect and ±100 for the full control effect; potency is read from the fitted curve at half-maximal effect; tags tell the direction and shape of the fitted curve.

SMILES | Potency | activity change, negative = inhibition
Cc1c(C)c2ccc(O)c(CN3CCCC3)c2oc1=O | inconclusive [inhibitor, partial curve, poor fit] | 
O=C(CNS(=O)(=O)c1ccccc1)OCC(=O)c1ccc(Br)cc1 |  | inactive: 0.491%
COc1ccc(/C=C/C(=O)N(Cc2ccccc2)c2ccccn2)cc1OC | inconclusive [inhibitor, single point] | 
Cc1ccccc1/C=C\c1nc2ccccc2c(=O)[nH]1 | inconclusive [inhibitor, single point] | 
COC(=O)C1=C(NC(=O)c2cccs2)CCS1 | inconclusive [inhibitor, partial curve, poor fit] | 
N#Cc1ccccc1NC(=O)CN1C(=O)NC(Cc2c[nH]c3ccccc23)C1=O (stereo unspecified) | inconclusive [inhibitor, single point] | 
O=S(=O)(Cc1ccccc1)NCC1CCCN(Cc2ccc3nonc3c2)C1 (stereo unspecified) | inconclusive [inhibitor, partial curve, poor fit] | 
Cc1ccc(-n2cc(-c3ccccc3)c3c(N4CCN(C)CC4)ncnc32)cc1 | inconclusive [inhibitor, partial curve, poor fit] | 
Cc1[nH]nc(SCC(=O)NCc2ccc(F)cc2)c1[N+](=O)[O-] |  | inactive: 5.4%
CCCCc1c(C)c2ccc(OC)c(/C(C)=N\O)c2oc1=O |  | inactive: 16.8%
CC(C)(C)C(=O)COC(=O)c1cc(-c2ccncc2)nc2ccccc12 | inconclusive [inhibitor, partial curve, poor fit] | 
Cc1cccc(/C(N)=N/OC(=O)N2c3ccccc3Sc3ccccc32)c1 | inconclusive [inhibitor, partial curve, poor fit] | 
CSCCOC(=O)C1=C(C)NC(=O)CC1c1ccccc1Cl (stereo unspecified) | inconclusive [inhibitor, partial curve] | 
COc1ccc(C)cc1NC(=O)CSc1nnc(COc2ccc(C)cc2)n1Cc1ccco1 | inconclusive [inhibitor, full curve, poor fit] | 
C=CCOc1ccccc1CN1CCC(n2nccc2NC(=O)C2CCOC2)CC1 (stereo unspecified) |  | inactive: 5.19%
O=C(N1CCOCC1)N1CCN(c2nc(-c3ccccc3)cs2)CC1 | inconclusive [inhibitor, single point] | 
Cc1ccc(C)n1-c1ccc(-c2ccnc(N)n2)cc1 | inconclusive [inhibitor, partial curve, poor fit] | 
CCOC(=O)CNC(=O)c1c(C)nn(C)c1Cl | inconclusive [inhibitor, single point] | 
COC(=O)c1c(S(=O)(=O)NCc2ccccc2)sc(C(=O)O)c1C |  | inactive: 13.3%
Cc1ccc(NC(=O)C2CCCN(C(=O)c3ccc(Cl)cc3)C2)cc1S(=O)(=O)N1CCOCC1 (stereo unspecified) | inconclusive [inhibitor, single point] | 
CCCCNC(=O)N(O)C1N(/N=C/c2ccccc2O)C(=S)SC1(C)C (stereo unspecified) | inconclusive [inhibitor, partial curve] | 

SMILES | Potency | activity change, negative = inhibition
COCCNC(=S)N1CCCN(c2nc3cc(C)ccc3cc2C#N)CC1 | inconclusive [inhibitor, single point] | 
O=C(COc1ccc(Br)cc1CNC1CCCC1)Nc1ccccc1 | active: 13.1 µM | 
Cc1ccc(S(=O)(=O)NCCOc2cc(C)ccc2C)cc1 |  | inactive: 4.77%
O=C(NCc1ccc2[nH]c3c(c2c1)CCCC3)c1ccc(S(=O)(=O)N2CCCCC2)cc1 | inconclusive [inhibitor, single point] | 
CCCNC(=O)c1nn2c(C(F)(F)F)cc(-c3ccccc3)nc2c1Cl | inconclusive [inhibitor, single point] | 
CCc1nc(N2CCOCC2)c(C#N)c2c1CCCC2 |  | inactive: 13.3%
COc1ccc([C@H]2CC(=O)C=C(c3ccc4ccccc4c3)C2)cc1OC | inconclusive [inhibitor, single point] | 
COc1cc(/C=C/C(=O)OCC(=O)c2ccc(S(=O)(=O)N3CCCCC3)cc2)cc(OC)c1OC | inconclusive [inhibitor, single point] | 
C/C=C(/C)C(=O)OC1Cc2c(ccc3ccc(=O)oc23)OC1(C)C (stereo unspecified) | inconclusive [inhibitor, single point] | 
CCCCn1nc(C(=O)Nc2ccccc2N2CCCC2)c2ccccc2c1=O | inconclusive [inhibitor, single point] | 
O=C(CCn1nnc2ccccc21)OCC(=O)c1ccc([N+](=O)[O-])cc1 |  | inactive: 15.2%
C#CCn1c(=NC(=O)c2cccs2)sc2cccc(OCC)c21 | inconclusive [inhibitor, partial curve, poor fit] | 
COc1ccc(S(=O)(=O)N2CCOCC2)cc1NC(=O)Cn1nnc2ccccc2c1=O |  | inactive: -15.5%
CC1(C)CC(CCN(Cc2ccccc2)C(=O)c2ccco2)(c2ccccc2)CCO1 (stereo unspecified) | inconclusive [inhibitor, partial curve] | 
Cc1nc(NC(=O)c2ccccc2)sc1-c1csc(Nc2cccc(F)c2)n1 | inconclusive [inhibitor, partial curve] | 
CC(=O)c1cn(-c2ccc(Cl)cc2)c(=O)n(Cc2ccc(F)cc2)c1=O | inconclusive [inhibitor, single point] | 
O=[N+]([O-])c1cccc(S(=O)(=O)c2ccc(NCCO)c([N+](=O)[O-])c2)c1 | inconclusive [inhibitor, partial curve, poor fit] | 
CCCCn1c(=O)[nH]c(=O)c2c1nc(-c1cc(Br)c(OCC)c(OC)c1)n2C | inconclusive [inhibitor, single point] | 
CCN(CC(=O)NCc1ccc(Cl)cc1)C(=O)c1c(C)noc1C | inconclusive [inhibitor, single point] | 
CN(C(=O)c1ccc(OC2CCN(Cc3ccccn3)CC2)cc1)C1CCCCC1 | inconclusive [inhibitor, single point] | 

Reference: PubChem BioAssay AID504832 (National Center for Advancing Translational Sciences (NCATS), 2011)
